Assay results from article PMC12820563, “FoxP3 forms a head-to-head dimer in vivo and stabilizes its multimerization on adjacent microsatellites”.
The other results are listed elsewhere or left out.

biological target: T1, MBP-FoxP1dN (Mus musculus, UniProt P58462 326-579); experiment: PD-seq (MBP pull-down with sequencing); 20 mM Tris-HCl pH 7.5, 100 mM NaCl, 1.5 mM MgCl2, 0.4 uM protein, 0.1 uM dsDNA library, 30 min, room temperature, amylose pull-down; high values mean tight binding; conditions: protein: recombinant; tags: His6-MBP; chain copies: 2; dsDNA, one strand shown
T1 sequence: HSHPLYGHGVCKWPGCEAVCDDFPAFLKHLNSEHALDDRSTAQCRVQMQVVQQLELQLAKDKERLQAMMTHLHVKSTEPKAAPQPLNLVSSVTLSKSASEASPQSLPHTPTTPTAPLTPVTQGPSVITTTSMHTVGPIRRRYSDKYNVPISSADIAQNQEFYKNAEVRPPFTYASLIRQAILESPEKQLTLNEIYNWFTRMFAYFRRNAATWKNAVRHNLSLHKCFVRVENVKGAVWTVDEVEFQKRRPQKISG
Summary of the method: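 E. coli-expressed mouse FoxP3 or FoxP1 fragment, N-terminus removed and tagged with His6-MBP, was used at 0.4 µM against 0.1 µM of a Klenow-filled degenerate double-stranded DNA library. After 30 min at room temperature in Tris pH 7.5 buffer with NaCl and MgCl2, complexes were pulled down on amylose resin and washed three times. Binding is pull-down over input reads-per-million enrichment from pooled replicates of the proteinase K-released, PCR-barcoded, Illumina-sequenced DNA.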

Sequence | binding signal
GATGATTGTTCTCCCAGCTGATGAATTTATCGACTCGAGTAAACAAATTTTCCTAATCTTTCTGTTCAAGCGCCATCTAC | 0.927 RPM ratio (pull-down/input)
GATGATTGTTCTCCCAGCTGATGAATTTAAGATATCGAGTAAACAAATTTTCCTAATCTTTCTGTTCAAGCGCCATCTAC | 0.873 RPM ratio (pull-down/input)
GATGATTGTTCTCCCAGCTGATGAATTCAGGCACTCGAGTAAACAAATTTTCCTAATCTTTCTGTTCAAGCGCCATCTAC | 0.819 RPM ratio (pull-down/input)
GATGATTGTTCTCCCAGCTGATGAATTTGATCCGTCGAGTAAACAAATTTTCCTAATCTTTCTGTTCAAGCGCCATCTAC | 0.802 RPM ratio (pull-down/input)
GATGATTGTTCTCCCAGCTGATGAATTCTTCAATTCGAGTAAACAAATTTTCCTAATCTTTCTGTTCAAGCGCCATCTAC | 0.916 RPM ratio (pull-down/input)
GATGATTGTTCTCCCAGCTGATGAATTTCATCGATCGAGTAAACAAATTTTCCTAATCTTTCTGTTCAAGCGCCATCTAC | 0.956 RPM ratio (pull-down/input)
GATGATTGTTCTCCCAGCTGATGAATTCACATTGTCGAGTAAACAAATTTTCCTAATCTTTCTGTTCAAGCGCCATCTAC | 0.901 RPM ratio (pull-down/input)
GATGATTGTTCTCCCAGCTGATGAATTATAACCATCGAGTAAACAAATTTTCCTAATCTTTCTGTTCAAGCGCCATCTAC | 1.04 RPM ratio (pull-down/input)
GATGATTGTTCTCCCAGCTGATGAATTGTTTGGATCGAGTAAACAAATTTTCCTAATCTTTCTGTTCAAGCGCCATCTAC | 1.65 RPM ratio (pull-down/input)
GATGATTGTTCTCCCAGCTGATGAATTTTAACAGTCGAGTAAACAAATTTTCCTAATCTTTCTGTTCAAGCGCCATCTAC | 0.923 RPM ratio (pull-down/input)
GATGATTGTTCTCCCAGCTGATGAATTTCCCGGGTCGAGTAAACAAATTTTCCTAATCTTTCTGTTCAAGCGCCATCTAC | 0.761 RPM ratio (pull-down/input)
GATGATTGTTCTCCCAGCTGATGAATTTGTACAGTCGAGTAAACAAATTTTCCTAATCTTTCTGTTCAAGCGCCATCTAC | 1.07 RPM ratio (pull-down/input)
GATGATTGTTCTCCCAGCTGATGAATTCATTACCTCGAGTAAACAAATTTTCCTAATCTTTCTGTTCAAGCGCCATCTAC | 0.933 RPM ratio (pull-down/input)
GATGATTGTTCTCCCAGCTGATGAATTGGAGACTTCGAGTAAACAAATTTTCCTAATCTTTCTGTTCAAGCGCCATCTAC | 0.819 RPM ratio (pull-down/input)
GATGATTGTTCTCCCAGCTGATGAATTATGGTTTTCGAGTAAACAAATTTTCCTAATCTTTCTGTTCAAGCGCCATCTAC | 1.24 RPM ratio (pull-down/input)
GATGATTGTTCTCCCAGCTGATGAATTAACAATATCGAGTAAACAAATTTTCCTAATCTTTCTGTTCAAGCGCCATCTAC | 1.87 RPM ratio (pull-down/input)
GATGATTGTTCTCCCAGCTGATGAATTCAGTGGCTCGAGTAAACAAATTTTCCTAATCTTTCTGTTCAAGCGCCATCTAC | 0.835 RPM ratio (pull-down/input)
GATGATTGTTCTCCCAGCTGATGAATTCCTAGGTTCGAGTAAACAAATTTTCCTAATCTTTCTGTTCAAGCGCCATCTAC | 0.762 RPM ratio (pull-down/input)
GATGATTGTTCTCCCAGCTGATGAATTTACATGTTCGAGTAAACAAATTTTCCTAATCTTTCTGTTCAAGCGCCATCTAC | 1.31 RPM ratio (pull-down/input)
GATGATTGTTCTCCCAGCTGATGAATTGGCCCCGTCGAGTAAACAAATTTTCCTAATCTTTCTGTTCAAGCGCCATCTAC | 0.748 RPM ratio (pull-down/input)
GATGATTGTTCTCCCAGCTGATGAATTGCGTGTTTCGAGTAAACAAATTTTCCTAATCTTTCTGTTCAAGCGCCATCTAC | 1.16 RPM ratio (pull-down/input)

Sequence | binding signal
GATGATTGTTCTCCCAGCTGATGAATTACGAAAGTCGAGTAAACAAATTTTCCTAATCTTTCTGTTCAAGCGCCATCTAC | 0.914 RPM ratio (pull-down/input)
GATGATTGTTCTCCCAGCTGATGAATTGGTGAATTCGAGTAAACAAATTTTCCTAATCTTTCTGTTCAAGCGCCATCTAC | 1.01 RPM ratio (pull-down/input)
GATGATTGTTCTCCCAGCTGATGAATTTGTAAAGTCGAGTAAACAAATTTTCCTAATCTTTCTGTTCAAGCGCCATCTAC | 1.08 RPM ratio (pull-down/input)
GATGATTGTTCTCCCAGCTGATGAATTTCTTATCTCGAGTAAACAAATTTTCCTAATCTTTCTGTTCAAGCGCCATCTAC | 0.829 RPM ratio (pull-down/input)
GATGATTGTTCTCCCAGCTGATGAATTCCCGGCTTCGAGTAAACAAATTTTCCTAATCTTTCTGTTCAAGCGCCATCTAC | 0.738 RPM ratio (pull-down/input)
GATGATTGTTCTCCCAGCTGATGAATTTTCTGCGTCGAGTAAACAAATTTTCCTAATCTTTCTGTTCAAGCGCCATCTAC | 1.03 RPM ratio (pull-down/input)
GATGATTGTTCTCCCAGCTGATGAATTGTACGTTTCGAGTAAACAAATTTTCCTAATCTTTCTGTTCAAGCGCCATCTAC | 1.04 RPM ratio (pull-down/input)
GATGATTGTTCTCCCAGCTGATGAATTCTAACCCTCGAGTAAACAAATTTTCCTAATCTTTCTGTTCAAGCGCCATCTAC | 0.828 RPM ratio (pull-down/input)
GATGATTGTTCTCCCAGCTGATGAATTAAGCTTATCGAGTAAACAAATTTTCCTAATCTTTCTGTTCAAGCGCCATCTAC | 1.03 RPM ratio (pull-down/input)
GATGATTGTTCTCCCAGCTGATGAATTTAGCCGGTCGAGTAAACAAATTTTCCTAATCTTTCTGTTCAAGCGCCATCTAC | 0.826 RPM ratio (pull-down/input)
GATGATTGTTCTCCCAGCTGATGAATTTCACATATCGAGTAAACAAATTTTCCTAATCTTTCTGTTCAAGCGCCATCTAC | 0.942 RPM ratio (pull-down/input)
GATGATTGTTCTCCCAGCTGATGAATTAGAAGTATCGAGTAAACAAATTTTCCTAATCTTTCTGTTCAAGCGCCATCTAC | 1.02 RPM ratio (pull-down/input)
GATGATTGTTCTCCCAGCTGATGAATTACGGACTTCGAGTAAACAAATTTTCCTAATCTTTCTGTTCAAGCGCCATCTAC | 0.994 RPM ratio (pull-down/input)
GATGATTGTTCTCCCAGCTGATGAATTACCTGCCTCGAGTAAACAAATTTTCCTAATCTTTCTGTTCAAGCGCCATCTAC | 0.965 RPM ratio (pull-down/input)
GATGATTGTTCTCCCAGCTGATGAATTTTGTCAGTCGAGTAAACAAATTTTCCTAATCTTTCTGTTCAAGCGCCATCTAC | 0.995 RPM ratio (pull-down/input)
GATGATTGTTCTCCCAGCTGATGAATTGACCCATTCGAGTAAACAAATTTTCCTAATCTTTCTGTTCAAGCGCCATCTAC | 0.957 RPM ratio (pull-down/input)
GATGATTGTTCTCCCAGCTGATGAATTTACAGTATCGAGTAAACAAATTTTCCTAATCTTTCTGTTCAAGCGCCATCTAC | 1.2 RPM ratio (pull-down/input)
GATGATTGTTCTCCCAGCTGATGAATTCTCTCTCTCGAGTAAACAAATTTTCCTAATCTTTCTGTTCAAGCGCCATCTAC | 0.81 RPM ratio (pull-down/input)
GATGATTGTTCTCCCAGCTGATGAATTCCTTAAGTCGAGTAAACAAATTTTCCTAATCTTTCTGTTCAAGCGCCATCTAC | 0.845 RPM ratio (pull-down/input)
GATGATTGTTCTCCCAGCTGATGAATTTGTGAAGTCGAGTAAACAAATTTTCCTAATCTTTCTGTTCAAGCGCCATCTAC | 1.09 RPM ratio (pull-down/input)
GATGATTGTTCTCCCAGCTGATGAATTTTGCGTTTCGAGTAAACAAATTTTCCTAATCTTTCTGTTCAAGCGCCATCTAC | 1.09 RPM ratio (pull-down/input)

Sequence | binding signal
GATGATTGTTCTCCCAGCTGATGAATTGTAAGAATCGAGTAAACAAATTTTCCTAATCTTTCTGTTCAAGCGCCATCTAC | 1.05 RPM ratio (pull-down/input)
GATGATTGTTCTCCCAGCTGATGAATTTCTGGTGTCGAGTAAACAAATTTTCCTAATCTTTCTGTTCAAGCGCCATCTAC | 0.842 RPM ratio (pull-down/input)
GATGATTGTTCTCCCAGCTGATGAATTGAGACCATCGAGTAAACAAATTTTCCTAATCTTTCTGTTCAAGCGCCATCTAC | 0.888 RPM ratio (pull-down/input)
GATGATTGTTCTCCCAGCTGATGAATTCTAGCTTTCGAGTAAACAAATTTTCCTAATCTTTCTGTTCAAGCGCCATCTAC | 1.03 RPM ratio (pull-down/input)
GATGATTGTTCTCCCAGCTGATGAATTTAATATTTCGAGTAAACAAATTTTCCTAATCTTTCTGTTCAAGCGCCATCTAC | 1.01 RPM ratio (pull-down/input)
GATGATTGTTCTCCCAGCTGATGAATTGCCCCTGTCGAGTAAACAAATTTTCCTAATCTTTCTGTTCAAGCGCCATCTAC | 0.834 RPM ratio (pull-down/input)
GATGATTGTTCTCCCAGCTGATGAATTACCATGCTCGAGTAAACAAATTTTCCTAATCTTTCTGTTCAAGCGCCATCTAC | 1.04 RPM ratio (pull-down/input)
GATGATTGTTCTCCCAGCTGATGAATTCGATTATTCGAGTAAACAAATTTTCCTAATCTTTCTGTTCAAGCGCCATCTAC | 0.908 RPM ratio (pull-down/input)
GATGATTGTTCTCCCAGCTGATGAATTATCTCAATCGAGTAAACAAATTTTCCTAATCTTTCTGTTCAAGCGCCATCTAC | 1.03 RPM ratio (pull-down/input)
GATGATTGTTCTCCCAGCTGATGAATTAAAGAACTCGAGTAAACAAATTTTCCTAATCTTTCTGTTCAAGCGCCATCTAC | 0.848 RPM ratio (pull-down/input)
GATGATTGTTCTCCCAGCTGATGAATTGCGTGGGTCGAGTAAACAAATTTTCCTAATCTTTCTGTTCAAGCGCCATCTAC | 1.01 RPM ratio (pull-down/input)
GATGATTGTTCTCCCAGCTGATGAATTGGATGACTCGAGTAAACAAATTTTCCTAATCTTTCTGTTCAAGCGCCATCTAC | 0.865 RPM ratio (pull-down/input)
GATGATTGTTCTCCCAGCTGATGAATTTTACCTCTCGAGTAAACAAATTTTCCTAATCTTTCTGTTCAAGCGCCATCTAC | 0.807 RPM ratio (pull-down/input)
GATGATTGTTCTCCCAGCTGATGAATTATGTGTGTCGAGTAAACAAATTTTCCTAATCTTTCTGTTCAAGCGCCATCTAC | 1.4 RPM ratio (pull-down/input)
GATGATTGTTCTCCCAGCTGATGAATTCATTTCGTCGAGTAAACAAATTTTCCTAATCTTTCTGTTCAAGCGCCATCTAC | 0.877 RPM ratio (pull-down/input)
GATGATTGTTCTCCCAGCTGATGAATTCGGGGGTTCGAGTAAACAAATTTTCCTAATCTTTCTGTTCAAGCGCCATCTAC | 0.801 RPM ratio (pull-down/input)
GATGATTGTTCTCCCAGCTGATGAATTCTGCTAGTCGAGTAAACAAATTTTCCTAATCTTTCTGTTCAAGCGCCATCTAC | 0.857 RPM ratio (pull-down/input)
GATGATTGTTCTCCCAGCTGATGAATTGAGGCGCTCGAGTAAACAAATTTTCCTAATCTTTCTGTTCAAGCGCCATCTAC | 0.896 RPM ratio (pull-down/input)
GATGATTGTTCTCCCAGCTGATGAATTTGTCCAGTCGAGTAAACAAATTTTCCTAATCTTTCTGTTCAAGCGCCATCTAC | 0.963 RPM ratio (pull-down/input)
GATGATTGTTCTCCCAGCTGATGAATTCTGGCTCTCGAGTAAACAAATTTTCCTAATCTTTCTGTTCAAGCGCCATCTAC | 0.755 RPM ratio (pull-down/input)
GATGATTGTTCTCCCAGCTGATGAATTTATTAGGTCGAGTAAACAAATTTTCCTAATCTTTCTGTTCAAGCGCCATCTAC | 1.05 RPM ratio (pull-down/input)
